# Measurements as given in PubChem BioAssay AID485344 (National Center for Advancing Translational Sciences (NCATS), 2010).
# The campaign covered roughly 340,000 compounds. About 6,900 (2%) were called active. Rule as the data show it: active = inhibition above about 30%; inactive = below that, where a call was filed. The list shows a part of the results, in another mix than the full data. The source gives no active or inactive call for entries shown without one.
# Target: D(2) dopamine receptor (Homo sapiens) (UniProt P14416)
# Chain of UniProt P14416 (P14416 whole entry, looked up): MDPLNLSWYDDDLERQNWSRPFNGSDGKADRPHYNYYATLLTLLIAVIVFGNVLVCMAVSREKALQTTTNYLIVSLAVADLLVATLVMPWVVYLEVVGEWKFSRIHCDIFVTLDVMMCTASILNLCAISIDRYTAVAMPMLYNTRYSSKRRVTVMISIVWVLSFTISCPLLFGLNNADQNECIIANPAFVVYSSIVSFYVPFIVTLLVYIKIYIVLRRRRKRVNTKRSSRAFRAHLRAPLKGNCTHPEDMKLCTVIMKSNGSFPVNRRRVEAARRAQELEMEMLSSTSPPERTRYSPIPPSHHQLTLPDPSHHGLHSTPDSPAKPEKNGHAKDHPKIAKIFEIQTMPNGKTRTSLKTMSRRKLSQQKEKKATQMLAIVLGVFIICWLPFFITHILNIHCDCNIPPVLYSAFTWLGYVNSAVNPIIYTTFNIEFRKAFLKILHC
# Test: HTS Assay for Allosteric Antagonists of the Human D2 Dopamine Receptor: Primary Screen for Antagonists; also: 0% is about no effect
# Settings: HEK293 TREx D2 cells, calcium flux, dopamine EC80; at 10 µM; stronger effect = higher value
# Procedure, shortened: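 Read-out: kinetic calcium fluorescence (1 cycle/s) in inducible HEK293 T-REx D2 cells after an EC80 dopamine addition that followed 180 s compound preincubation. Loss of the dopamine response indicates antagonism.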
row,Compound,inhibition
1,Cc1ccn2c(=O)c(NC(=O)c3cccc([N+](=O)[O-])c3C)c(C)nc2c1,-11.3%
2,Cc1nn(-c2ccc(N3CCCCC3)nn2)c(C)c1CCC(=O)Nc1cccc(F)c1,8.36%
3,COCCN(C(=O)COC(=O)/C=C/c1ccc(C(F)(F)F)cc1)c1c(N)n(Cc2ccccc2)c(=O)[nH]c1=O,active: 45.3%
4,O=C(NCc1ccc2c(c1)CCN2C(=O)c1ccncc1)c1cccc(F)c1,-0.0707%
5,CCOC(=O)c1[nH]c(C)c(C(=O)NCc2ccccc2Cl)c1C,-6.67%
6,O=C(CCc1nnc2n(Cc3ccccc3Cl)c(=O)c3ccccc3n12)Nc1ccccc1,18.5%
7,COc1ccc(NC(=O)c2ccc(-c3nc(CSc4ccccc4)c(C)o3)cc2)c(OC)c1,-6.81%
8,CCCCN(c1ccccc1)S(=O)(=O)c1cc2c3c(c1)C(C)C(=O)N3CCC2 (configuration not stated),-3.63%
9,CCc1ccc(S(=O)(=O)Nc2ccc3oc(C)c(C(=O)OCCOC)c3c2)cc1,6.18%
10,Cc1cccc(NC(=O)c2cc3c(C)nn(-c4ccccc4)c3s2)c1,-1.56%
11,COCCn1c(SCC#N)nnc1-c1ccc(OC)cc1,active: 54.6%
12,Cc1ccc(-n2ncc3c(=O)n(Cc4cccc(C(F)(F)F)c4)cnc32)cc1C,-0.274%
13,CCCCn1c(SCc2ccccc2C#N)nc2c(sc3ccccc32)c1=O,-0.914%
14,COC(=O)c1ccc(NC(=O)CN2CCN(c3ccccn3)CC2)cc1,active: 68.5%
15,Cc1ccc2c(c1)-c1onc(C(=O)N(C)c3ccc(F)cc3)c1CO2,-9.5%
16,CCOC(=O)Cn1c(=O)cc(C)c2c(C)nn(-c3cccc(F)c3)c21,2.27%
17,CC(C)(CN1CCN(Cc2ccccc2)CC1)NS(=O)(=O)c1ccccc1,active: 40.7%
18,CCN1C(=O)c2ccccc2S(=O)c2ccc(C(=O)N3CCN(c4cccc(Cl)c4)CC3)cc21 (configuration not stated),-3.16%
19,COC(=O)c1cc(NC(=O)CCc2c(C)nc3nc(C)nn3c2C)cc(C(=O)OC)c1,28%
20,O=C(Cc1ccc(F)cc1)NCCc1csc2nc(-c3ccc(Cl)cc3)nn12,-11.6%
21,COc1cc(C(=O)Nc2nc3c(s2)Cc2c(Br)ccc(OC)c2-3)cc(OC)c1OC,-1.35%
22,CCC(Sc1nc2ccccc2c2nc(CCc3c(C)n[nH]c3C)nn12)C(=O)Nc1ccc(OC)cc1 (configuration not stated),4.08%
23,O=C(Nc1nnc(N2CCCCCC2)s1)Nc1ccccc1C(F)(F)F,-3.24%
24,COc1ccc(Cl)cc1NC(=O)CSc1c2c(nc3ccccc13)CCC2,3.6%

row,Compound,inhibition
1,O=C(c1ccc2c(c1)N(Cc1ccc(F)cc1)C(=O)c1ccccc1S2=O)N1CCOCC1 (configuration not stated),1.49%
2,CCN(c1ccccc1)S(=O)(=O)c1ccc(NC(=O)c2cc(=O)c3cc(C)ccc3o2)cc1,-3.57%
3,O=C(c1cc2ccccc2o1)N1CCN(C/C=C/c2ccccc2)CC1,active: 77%
4,Cc1ccc(C)n1-c1ccc(C(=O)NC2CCN(Cc3ccccc3)CC2)cc1,active: 84.8%
5,Cc1cc(C)c2c(n1)nn1c(C)c(CCC(=O)NCc3ccccc3Cl)c(C)nc21,9.79%
6,COC(=O)c1c(C)sc(-c2c(-c3ccc4c(c3)OCCO4)[nH]c3[nH]c(=O)[nH]c(=O)c23)c1O,8.98%
7,CC(C)CC(C(=O)Nc1ccc2c(c1)OCCO2)N1C(=O)c2ccccc2C1=O (configuration not stated),active: 57%
8,CCOc1ccc(-c2cc3nc(C4CCN(C(=O)OC(C)(C)C)CC4)c(C(=O)Nc4ccc(C)cc4Cl)cn3n2)cc1,-4.18%
9,CN1CCSc2ccc(C(=O)NCc3ccccc3F)cc21,11.1%
10,O=C(OCC1CCCO1)c1ccc2c(c1)N(Cc1cccc(Cl)c1)C(=O)c1ccccc1S2(=O)=O (configuration not stated),5.43%
11,Cc1ccc(NC(=O)NCCOCCn2c(=O)oc3ccccc32)cc1F,-14.3%
12,Cc1cccc(NC(=O)c2c(NC(=O)c3ccccc3)sc3c2CCCC3)c1,-4.09%
13,COc1ccc(S(=O)(=O)NCC(=O)N(CC(=O)NCc2ccco2)C2CCCC2)cc1,active: 46.7%
14,CC(C)Oc1ccc(CNC(=O)Nc2ccc3c(c2)N(C)C(=O)c2ccccc2S3)cc1,9.92%
15,COc1cccc(/C(O)=C2/C(=O)C(=O)N(c3ccccn3)C2c2ccc(OC)c(OC)c2)c1 (configuration not stated),active: 31.8%
16,CCCSc1ncc(Cl)c(C(=O)Nc2c(C(=O)Nc3ccccc3)oc3ccccc23)n1,1.65%
17,COc1ccc(N2CCN(S(=O)(=O)CCNC(=O)COc3cccc(OC)c3)CC2)cc1,19.5%
18,Cc1cccc(Cn2c(SCc3ccc(C(=O)N4CCC(C)CC4)cc3)nc3ccncc32)c1,-10.3%
19,Cc1ccc(C)c(OCCC(=O)OCC(=O)N2c3ccccc3NC(=O)C2(C)C)c1,active: 42.3%
20,COc1ccccc1NC(=O)CN1C(=O)CC(c2ccc(C)c(C)c2)=Nc2ccccc21,10.2%
21,COc1ccccc1CCNC(=O)Cc1c(C)c2cc3c(C(C)(C)C)coc3c(C)c2oc1=O,9.46%
22,CCCc1cc(=O)[nH]c(SCc2nc(-c3ccc(C)cc3)no2)n1,6.82%
23,COc1ccc(CCNC(=O)c2ccc(-n3c(C)cc4c3CCCC4)cc2)cc1OC,3.63%
